Laboratory results published in patent US12577303B2.

Experiments:
[1] = biological target: human Sirpα-V1-his (human) (UniProt P78324); test: blocking ELISA: Sirpα to CD47 (dimer)
[2] = biological target: human Sirpα-V1 recombinant protein (human) (UniProt P78324); test: ELISA
[3] = biological target: human Sirpα-V1-hFc (human) (UniProt P78324); test: blocking ELISA: Sirpα (dimer) to CD47

| IC50 [1] [nM] | multiple of change of IC50 (bispecific / corresponding monoclonal antibody) [1] | EC50 [2] [nM] | multiple of change of EC50 (bispecific / corresponding monoclonal antibody) [2] | IC50 [3] [nM] | multiple of change of IC50 (bispecific / corresponding monoclonal antibody) [3] | Binder |
| --- | --- | --- | --- | --- | --- | --- |
| 5.42 | 0.88 | 0.059 | 0.77 | 2.55 | 0.66 | LB501 (bispecific antibody) light: DIQMTQSPSSLSASVGDRVTITCRASQDIRNYLNWYQQKPGKAPKLLIYFTSTLHSGVPSRFSGSGSGTDFTLTISSLQPEDFATYYCQQGNTLPWTFGGGTKVEIKGGGGSGGGGSGGGGSQVQLVQSGAEVKKPGASVKVSCKASGYNFNIYWINWVRQAPGQGLEWIGNIYPSSISTNYNEKFKTRATLTVDKSTSTVYMELSSLRSEDTAVYYCARSEGTYYGGRYEGDWFGYWGQGTLVTVSSGGGGSGGGGSGGGGSEIVLTQSPATLSLSPGERATLSCRASKGVSTSGYSYLHWYQQKPGQAPRLLIYLASYLESGVPARFSGSGSGTDFTLTISSLEPEDFAVYYCQHSRDLPLTFGGGTKVEIKRTVAAPSVFIFPPSDEQLKSGTASVVCLLNNFYPREAKVQWKVDNALQSGNSQESVTEQDSKDSTYSLSSTLTLSKADYEKHKVYACEVTHQGLSSPVTKSFNRGEC heavy: QVQLVQSGVEVKKPGASVKVSCKASGYTFTNYYMYWVRQAPGQGLEWMGGINPSNGGTNFNEKFKNRVTLTTDSSTTTAYMELKSLQFDDTAVYYCARRDYRFDMGFDYWGQGTTVTVSSASTKGPSVFPLAPCSRSTSESTAALGCLVKDYFPEPVTVSWNSGALTSGVHTFPAVLQSSGLYSLSSVVTVPSSSLGTKTYTCNVDHKPSNTKVDKRV[letters of human IgG4 Fc with S228P (EU numbers) omitted] |
| 7.63 | 1.24 | 0.075 | 0.97 | 4.8 | 1.24 | LB503 (bispecific antibody) light: EIVLTQSPATLSLSPGERATLSCRASKGVSTSGYSYLHWYQQKPGQAPRLLIYLASYLESGVPARFSGSGSGTDFTLTISSLEPEDFAVYYCQHSRDLPLTFGGGTKVEIKRTVAAPSVFIFPPSDEQLKSGTASVVCLLNNFYPREAKVQWKVDNALQSGNSQESVTEQDSKDSTYSLSSTLTLSKADYEKHKVYACEVTHQGLSSPVTKSFNRGECAGGGGSGGGGSGGGGSQVQLVQSGAEVKKPGASVKVSCKASGYNFNIYWINWVRQAPGQGLEWIGNIYPSSISTNYNEKFKTRATLTVDKSTSTVYMELSSLRSEDTAVYYCARSEGTYYGGRYEGDWFGYWGQGTLVTVSSGGGGSGGGGSGGGGSDIQMTQSPSSLSASVGDRVTITCRASQDIRNYLNWYQQKPGKAPKLLIYFTSTLHSGVPSRFSGSGSGTDFTLTISSLQPEDFATYYCQQGNTLPWTFGGGTKVEIK heavy: QVQLVQSGVEVKKPGASVKVSCKASGYTFTNYYMYWVRQAPGQGLEWMGGINPSNGGTNFNEKFKNRVTLTTDSSTTTAYMELKSLQFDDTAVYYCARRDYRFDMGFDYWGQGTTVTVSSASTKGPSVFPLAPCSRSTSESTAALGCLVKDYFPEPVTVSWNSGALTSGVHTFPAVLQSSGLYSLSSVVTVPSSSLGTKTYTCNVDHKPSNTKVDKRV[letters of human IgG4 Fc with S228P (EU numbers) omitted] |
| 5.37 | 0.87 | 0.066 | 0.86 | 3.78 | 0.97 | LB502 (bispecific antibody) light: EIVLTQSPATLSLSPGERATLSCRASKGVSTSGYSYLHWYQQKPGQAPRLLIYLASYLESGVPARFSGSGSGTDFTLTISSLEPEDFAVYYCQHSRDLPLTFGGGTKVEIKRTVAAPSVFIFPPSDEQLKSGTASVVCLLNNFYPREAKVQWKVDNALQSGNSQESVTEQDSKDSTYSLSSTLTLSKADYEKHKVYACEVTHQGLSSPVTKSFNRGEC heavy: DIQMTQSPSSLSASVGDRVTITCRASQDIRNYLNWYQQKPGKAPKLLIYFTSTLHSGVPSRFSGSGSGTDFTLTISSLQPEDFATYYCQQGNTLPWTFGGGTKVEIKGGGGSGGGGSGGGGSQVQLVQSGAEVKKPGASVKVSCKASGYNFNIYWINWVRQAPGQGLEWIGNIYPSSISTNYNEKFKTRATLTVDKSTSTVYMELSSLRSEDTAVYYCARSEGTYYGGRYEGDWFGYWGQGTLVTVSSGGGGSGGGGSGGGGSQVQLVQSGVEVKKPGASVKVSCKASGYTFTNYYMYWVRQAPGQGLEWMGGINPSNGGTNFNEKFKNRVTLTTDSSTTTAYMELKSLQFDDTAVYYCARRDYRFDMGFDYWGQGTTVTVSSASTKGPSVFPLAPCSRSTSESTAALGCLVKDYFPEPVTVSWNSGALTSGVHTFPAVLQSSGLYSLSSVVTVPSSSLGTKTYTCNVDHKPSNTKVDKRV[letters of human IgG4 Fc with S228P (EU numbers) omitted] |
| 6.63 | 1.08 | 0.055 | 0.71 | 4.62 | 1.19 | LB504 (bispecific antibody) light: EIVLTQSPATLSLSPGERATLSCRASKGVSTSGYSYLHWYQQKPGQAPRLLIYLASYLESGVPARFSGSGSGTDFTLTISSLEPEDFAVYYCQHSRDLPLTFGGGTKVEIKRTVAAPSVFIFPPSDEQLKSGTASVVCLLNNFYPREAKVQWKVDNALQSGNSQESVTEQDSKDSTYSLSSTLTLSKADYEKHKVYACEVTHQGLSSPVTKSFNRGEC heavy: QVQLVQSGVEVKKPGASVKVSCKASGYTFTNYYMYWVRQAPGQGLEWMGGINPSNGGTNFNEKFKNRVTLTTDSSTTTAYMELKSLQFDDTAVYYCARRDYRFDMGFDYWGQGTTVTVSSASTKGPSVFPLAPCSRSTSESTAALGCLVKDYFPEPVTVSWNSGALTSGVHTFPAVLQSSGLYSLSSVVTVPSSSLGTKTYTCNVDHKPSNTKVDKRV[letters of human IgG4 Fc with S228P (EU numbers) omitted]AGGGGSGGGGSGGGGSQVQLVQSGAEVKKPGASVKVSCKASGYNFNIYWINWVRQAPGQGLEWIGNIYPSSISTNYNEKFKTRATLTVDKSTSTVYMELSSLRSEDTAVYYCARSEGTYYGGRYEGDWFGYWGQGTLVTVSSGGGGSGGGGSGGGGSDIQMTQSPSSLSASVGDRVTITCRASQDIRNYLNWYQQKPGKAPKLLIYFTSTLHSGVPSRFSGSGSGTDFTLTISSLQPEDFATYYCQQGNTLPWTFGGGTKVEIK |
